Test [1] concerns the target T1, Recombinant human TNFa (SinoBiological) (human, UniProt P01375 part only).
T1 construct: also called rhTNFa
The experiment in a line: ELISA, rhTNFa coated, fusion protein titrated, anti-human IgG Fc-AP detection. In general terms: In an ELISA, binding on a coated surface is turned into a signal by an enzyme label.

Test [2] has as its target T2, recombinant human RANKL-murine Fc fusion protein (Sino Biological Inc.) (human, UniProt O14788 136-317, limits assumed).
T2 construct: Bought; not shown: murine Fc
T2 sequence (looked up): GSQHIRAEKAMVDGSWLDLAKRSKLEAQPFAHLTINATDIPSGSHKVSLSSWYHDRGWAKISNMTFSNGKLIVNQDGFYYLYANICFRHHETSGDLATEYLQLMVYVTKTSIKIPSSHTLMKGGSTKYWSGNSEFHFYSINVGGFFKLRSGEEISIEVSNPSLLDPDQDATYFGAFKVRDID
The experiment in a line: ELISA, human RANKL-murine Fc coated at 1 ug/mL, fusion protein titrated, anti-human IgG Fc-AP detection.

T1 sequence (P01375 77-233 limits assumed): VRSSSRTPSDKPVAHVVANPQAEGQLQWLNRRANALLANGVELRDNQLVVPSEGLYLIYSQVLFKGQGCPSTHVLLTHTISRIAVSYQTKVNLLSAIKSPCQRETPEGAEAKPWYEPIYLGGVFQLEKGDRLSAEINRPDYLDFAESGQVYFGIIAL

B1: OPG-TNFR2-Fc fusion protein (Fc fusion)
chain: ETFPPKYLHYDEETSHQLLCDKCPPGTYLKQHCTAKWKTVCAPCPDHYYTDSWHTSDECLYCSPVCKELQYVKQECNRTHNRVCECKEGRYLEIEFCLKHRSCPPGFGVVQAGTPERNTVCKRCPDGFFSNETSSKAPCRKHTNCSVFGLLLTQKGNATHDNICSGNSESTQKLPAQVAFTPYAPEPGSTCRLREYYDQTAQMCCSKCSPGQHAKVFCTKTSDTVCDSCEDSTYTQLWNWVPECLSCGSRCSSDQVETQACTREQNRICTCRPGWYCALSKQEGCRLCAPLRKCRPGFGVARPGTETSDVVCKPCAPGTFSNTTSSTDICRPHQICNVVAIPGNASRDAVCTSTSPTRSMAPGAVHLPQPVSTRSQHTQPTPEPSTAPSTSFLLPMGPSPPAEGSTGD[left out - human IgG1 Fc]
notes: also called OPG(1-194)-TNFR2(23-257)-Fc; OTFc
What is called EC50 is the midpoint of the concentration-response curve. For the molecule B1, the half-maximal effective concentration (EC50) in test [1] came to 0.033 µg/mL; in test [2], 0.0099 µg/mL.

B2: TNFR2 (1-257)-OPG(22-194)-TNFR2(202-257)-Fc fusion protein (Fc fusion)
chain: LPAQVAFTPYAPEPGSTCRLREYYDQTAQMCCSKCSPGQHAKVFCTKTSDTVCDSCEDSTYTQLWNWVPECLSCGSRCSSDQVETQACTREQNRICTCRPGWYCALSKQEGCRLCAPLRKCRPGFGVARPGTETSDVVCKPCAPGTFSNTTSSTDICRPHQICNVVAIPGNASRDAVCTSTSPTRSMAPGAVHLPQPVSTRSQHTQPTPEPSTAPSTSFLLPMGPSPPAEGSTGDETFPPKYLHYDEETSHQLLCDKCPPGTYLKQHCTAKWKTVCAPCPDHYYTDSWHTSDECLYCSPVCKELQYVKQECNRTHNRVCECKEGRYLEIEFCLKHRSCPPGFGVVQAGTPERNTVCKRCPDGFFSNETSSKAPCRKHTNCSVFGLLLTQKGNATHDNICSGNSESTQKSTSPTRSMAPGAVHLPQPVSTRSQHTQPTPEPSTAPSTSFLLPMGPSPPAEGSTGD[left out - human IgG1 Fc]
notes: also called TNFR2-OPG-Fc; TOFc
In the case of B2, the values for the EC50 in test [1] and in test [2] were 0.068 µg/mL and 0.0094 µg/mL, respectively.
